Test results: the RNAGym collection of RNA variant scans (doi:10.1073/pnas.2313332121)
Variants at the background level are over-represented here.

B1: TPR 5TU (parent)
chain: GGAUCUUCUCGAUCUAACAAAAAAGACAAAUCUGCCACAAAGCUUGAGAGCAUCUUCGGAUGCAGAGGCGGCAGCCUUCGGUGGCGCGAUAGCGCCAACGUUCUCAACUAUGACACGCAAAACGCGUGCUCCGUUGAAUGGAGUUUAUCAUG

Variants of: B1
Assay: polymerase ribozyme fitness, log enrichment relative to wild type (log ratio); higher = more active; in vitro selection for triplet polymerase activity
Procedure, shortened: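 After PCR construction and transcription, each subunit's mutant library from a heterodimeric triplet polymerase ribozyme was annealed with a biotinylated primer, the partner subunit and triplets. Incubation was frozen, at −7 °C, and extended constructs were gel-excised, bound to streptavidin beads and amplified by RT-PCR, in one selection round done in triplicate. Fitness is the logarithm of a genotype's enrichment divided by that of the wild type, from inverse-variance-weighted replicate averages of Illumina-sequenced inputs and outputs. The base of the logarithm is 2, and genotypes needed ≥10 input reads and ≥1 read per output.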

| Variant | polymerase ribozyme fitness (log ratio) |
| --- | --- |
| A40C U53G C76A A91G A115G | ≤ -4.2 |
| A41C G42A U61A C76G U127A A138U | ≤ -4.2 |
| A40G A49G | -3.58 |
| A40U G59U C75G U82G C99U A137U G141C | ≤ -4.2 |
| A41C C57A C96U | -0.533 |
| A40G G71A C96G | ≤ -4.2 |
| A40G G67A G92A A110C | ≤ -4.2 |
| A40U C57G C108U | ≤ -4.2 |
| A40U G42C U56A C85A | ≤ -4.2 |
| A40G C54G C93A C103G A121G U146C | ≤ -4.2 |
| A40C C93U | 0.422 |
| A40U G92C U102C C103G A113G C132G U146C G152U | ≤ -4.2 |
| A40C U55A G88C | ≤ -4.2 |
| A41C C76U G81A A110C | ≤ -4.2 |
| A40C U55A G88A C108G C118U U130A | ≤ -4.2 |
| A41C C43U C125U | ≤ -4.2 |
| A40C C87A | -3.55 |
| A41C A47U G86U U90C C99G C118G A147C | ≤ -4.2 |
| A40G G71A U78G C85A C93G | ≤ -4.2 |
| A41C G42A A52U C87U C95U | ≤ -4.2 |
| A41C G80C U134G | ≤ -4.2 |

| Variant | polymerase ribozyme fitness (log ratio) |
| --- | --- |
| A40C U55A A89C | 0.0362 |
| A40G A41C A66U C85G A97C A120G | ≤ -4.2 |
| A41C C54U U55G A64U C85G G112A C114G A137C A147C | ≤ -4.2 |
| A40C G74A G81A C95U C116G | ≤ -4.2 |
| A40G A52U G62A | ≤ -4.2 |
| A40U A52C U82G C87G C93U A142C | ≤ -4.2 |
| A41C C43U C63U G88U | ≤ -4.2 |
| A40C G50U G59A C76G C87U A89G A107U G126U | ≤ -4.2 |
| A40U G92A A119C A120C U148G | ≤ -4.2 |
| A40G A52G G86U C108G C132U | ≤ -4.2 |
| A40G C125G | -2.5 |
| A40G U45A G126U C129A G141C | ≤ -4.2 |
| A40C U44G G100U A106C | ≤ -4.2 |
| A40U G67C G86A A89U C96G C132G A137U | ≤ -4.2 |
| A40U G59C C132U U145G | -1.94 |
| A40U G50C C57U U82A | -2.79 |
| A40U A41C U45G C99A C125U U130G A142U | ≤ -4.2 |
| A40U A47U U61G G83C C96A G140U | ≤ -4.2 |
| A40G U56G C85A A115U U134C | -4.09 |
| A41C A89U C95U G124A C125G | -1.75 |
| A41C C79A G84A G126C | ≤ -4.2 |

| Variant | polymerase ribozyme fitness (log ratio) |
| --- | --- |
| A40C G86A C87U | ≤ -4.2 |
| A40G A41U | -2.41 |
| A40U A60U C79U A142C | ≤ -4.2 |
| A40U U56G C57G A121C U135G A137C G152C | ≤ -4.2 |
| A40G C54U U55A U127A U135C | ≤ -4.2 |
| A40G U53A A73U C93G A113U | ≤ -4.2 |
| A40C C93G A98C C125U | ≤ -4.2 |
| A41C C85U | -1.29 |
| A40G C87U | -1.53 |
| A40G C87G | ≤ -4.2 |
| A40G A66G G67A G84U A107C C116U G126U | ≤ -4.2 |
| A41C G48A A60G G83C A110U U144C | ≤ -4.2 |
| A40C G65A C72G G128U U144C | ≤ -4.2 |
| A41C A66G C79G G141A | ≤ -4.2 |
| A40G C85U | -2.16 |
| A41C C93U C105U | -1.68 |
| A41C C57G | -1.09 |
| A40G G48C U55A U145G U148C C149G | ≤ -4.2 |
| A41C C85G A89G U102G G143A | ≤ -4.2 |
| A40C G46A A91G U104G A119G U148G | ≤ -4.2 |
| A41C C72G C76A C116G C118U | ≤ -4.2 |

| Variant | polymerase ribozyme fitness (log ratio) |
| --- | --- |
| A40U G50A G71C G74C U78C U104A A150U | ≤ -4.2 |
| A40U G59U C75A C85U U109A | ≤ -4.2 |
| A40G C85G A89G | ≤ -4.2 |
| A40G A41U A49U G58C G74U C85A U139G G141C U148C | ≤ -4.2 |
| A40U A91C A120C C129A U151A | ≤ -4.2 |
| A40G A49G C85U C95A | ≤ -4.2 |
| A40U G86C C114G A137U | ≤ -4.2 |
| A40G G58C G59C G68C G80A G94A | ≤ -4.2 |
| A40G G50A U53G G58A | ≤ -4.2 |
| A40U G70C C79G A106G U135C U145G A150C | ≤ -4.2 |
| A41C C85U A89G U90G A106G | ≤ -4.2 |
| A40C U61G U135G U139G | ≤ -4.2 |
| A41C C75U C87A C116G G133U A147U | ≤ -4.2 |
| A40G C87A U151C | ≤ -4.2 |
| A40G C43A A52C C54A G94U U151A | ≤ -4.2 |
| A41C A66C A147G | ≤ -4.2 |
| A40C U53A A137C G140C | ≤ -4.2 |
| A41C G50A G86A G140A | ≤ -4.2 |
| A40U G86U C108G U148G | ≤ -4.2 |
| A41C A52C C69U C87A A119G G140U | ≤ -4.2 |
| A40G A47C G86U C105G | ≤ -4.2 |
